The labels stand for the following.
B1: PhoQ; a variant is named by its letters at X, in order, P23837 (parent)
chain: MKKLLRLFFPLSLRVRFLLATAAVVLVLSLAYGMVALIGYSVSFDKTTFRLLRGESNLFYTLAKWENNKLHVELPENIDKQSPTMTLIYDENGQLLWAQRDVPWLMKMIQPDWLKSNGFHEIEADVNDTSLLLSGDHSIQQQLQEVREDDDDAEMTHSVAVNVYPATSRMPKLTIVVVDTIPVELKSSYMVWSWFIYVLSANLLLVIPLLWVAAWWSLRPIEALAKEVRELEEHNRELLNPATTRELTSLVRNLNRLLKSERERYDKYRTTLTDLTHSLKTPLXXLQXXLRSLRSEKMSVSDAEPVMLEQISRISQQIGYYLHRASMRGGTLLSRELHPVAPLLDNLTSALNKVYQRKGVNISLDISPEISFVGEQNDFVEVMGNVLDNACKYCLEFVEISARQTDEHLYIVVEDDGPGIPLSKREVIFDRGQRVDTLRPGQGVGLAVAREITEQYEGKIVAGESMLGGARMEVIFGRQHSAPKDE

The list shows a part of the results.

The variants in this test derive from B1. The test can be described thus: enrichment ratio after two sorts for PhoP signalling (ratio (wild type AVST 3.29)); higher = more functional. As to conditions: with PhoP (E. coli).
As for TVRL, the enrichment ratio came to 0.897.

Take IVCA: the enrichment ratio was determined as 0.421.

In the case of YNTE, the enrichment ratio was at most 0.25.

Consider NDCN, for which the enrichment ratio is at most 0.25.

As to DFGM, the enrichment ratio is at most 0.25.

Take HPRR: the enrichment ratio is at most 0.25.

As to TYFV, the enrichment ratio was at most 0.25.

As for DATG, the enrichment ratio was at most 0.25.

In the case of GTPQ, the enrichment ratio is at most 0.25.

Consider AYGI, for which the enrichment ratio was at most 0.25.

Turning to QNFI, the enrichment ratio was at most 0.25.

In the case of MAMR, the enrichment ratio was at most 0.25.

With VYDK, the enrichment ratio was at most 0.25.

As to GLAN, the enrichment ratio is at most 0.25.

As to LWKQ, the enrichment ratio is at most 0.25.

With ITTV, the enrichment ratio was at most 0.25.

In the case of QFWL, the enrichment ratio was at most 0.25.

With TEYT, the enrichment ratio turned out to be 3.84.

TVTG: the enrichment ratio worked out at 15.3.

With EWCR, the enrichment ratio was at most 0.25.

As for DYEI, the enrichment ratio is at most 0.25.

Turning to DTTK, the enrichment ratio is at most 0.25.

With HSFP, the enrichment ratio was at most 0.25.

Regarding FHSW, the enrichment ratio is at most 0.25.

As to YWFS, the enrichment ratio was at most 0.25.

On to KGRT, for which the enrichment ratio is at most 0.25.

Turning to VKTT, the enrichment ratio is at most 0.25.

For SLVN, the enrichment ratio came to 1.02.

As to SELC, the enrichment ratio is 20.4.

Take YYIH: the enrichment ratio is at most 0.25.

Consider TKLG, for which the enrichment ratio is 10.

As to MPRG, the enrichment ratio is at most 0.25.

On to SRYP, for which the enrichment ratio is at most 0.25.

For the variant DMMW, the enrichment ratio was at most 0.25.

Take VFMN: the enrichment ratio is at most 0.25.

For DQES, the enrichment ratio was at most 0.25.

Regarding NGIG, the enrichment ratio was at most 0.25.

In the case of SEHH, the enrichment ratio was at most 0.25.

Turning to RCKE, the enrichment ratio was at most 0.25.

For HGYC, the enrichment ratio was at most 0.25.

On to IVSP, for which the enrichment ratio is at most 0.25.

For WKYD, the enrichment ratio is at most 0.25.

As to SYFS, the enrichment ratio was at most 0.25.

HMDS: the enrichment ratio is at most 0.25.

Turning to DISE, the enrichment ratio is at most 0.25.

For KTII, the enrichment ratio was at most 0.25.

As to AVCQ, the enrichment ratio came to 3.67.

Take RGAT: the enrichment ratio is at most 0.25.

NTCH: the enrichment ratio was at most 0.25.

In the case of PFHA, the enrichment ratio was at most 0.25.

Take MLLF: the enrichment ratio was 1.3.

Consider GYHF, for which the enrichment ratio was at most 0.25.

Turning to RGPH, the enrichment ratio is at most 0.25.

In the case of FCQK, the enrichment ratio is at most 0.25.

For the variant NWDL, the enrichment ratio is at most 0.25.

As to PSQT, the enrichment ratio is at most 0.25.

As to ILDG, the enrichment ratio is at most 0.25.

Regarding WWCH, the enrichment ratio is at most 0.25.

With QARV, the enrichment ratio was at most 0.25.

With WKFL, the enrichment ratio is at most 0.25.

With MRVE, the enrichment ratio was at most 0.25.

For KFDQ, the enrichment ratio was at most 0.25.

For the variant IFEY, the enrichment ratio is at most 0.25.

For the variant TCQS, the enrichment ratio amounted to 6.51.

ILSN: the enrichment ratio is at most 0.25.

For PHVE, the enrichment ratio was at most 0.25.

On to IDTA, for which the enrichment ratio is at most 0.25.

As for QEHP, the enrichment ratio is at most 0.25.

As for SPGW, the enrichment ratio was at most 0.25.

For the variant WHKY, the enrichment ratio was at most 0.25.

Consider RKLM, for which the enrichment ratio turned out to be 0.532.

On to LNYL, for which the enrichment ratio is at most 0.25.

In the case of NINF, the enrichment ratio was at most 0.25.

In the case of PMVE, the enrichment ratio is at most 0.25.

Consider MREW, for which the enrichment ratio was at most 0.25.

NQDG: the enrichment ratio is at most 0.25.

Consider VKFS, for which the enrichment ratio is at most 0.25.

On to VYDG, for which the enrichment ratio is at most 0.25.

Turning to MSPD, the enrichment ratio is at most 0.25.

Regarding RYAQ, the enrichment ratio is at most 0.25.

On to SDFG, for which the enrichment ratio was at most 0.25.

Take WHKR: the enrichment ratio was at most 0.25.

Regarding WAFL, the enrichment ratio was at most 0.25.

Regarding PIKF, the enrichment ratio is at most 0.25.

Regarding TKSI, the enrichment ratio was 14.9.

As to PSMI, the enrichment ratio was at most 0.25.

For the variant ISTL, the enrichment ratio is at most 0.25.

As to ELEG, the enrichment ratio was at most 0.25.

Regarding YQWL, the enrichment ratio was at most 0.25.

On to WQIQ, for which the enrichment ratio is at most 0.25.

For YWVE, the enrichment ratio is at most 0.25.

As to IEEA, the enrichment ratio was at most 0.25.

For NDKG, the enrichment ratio was at most 0.25.

As for YMEG, the enrichment ratio is at most 0.25.

NCDS: the enrichment ratio is at most 0.25.

As for NKSG, the enrichment ratio is at most 0.25.

In the case of HEVD, the enrichment ratio is at most 0.25.

CLTL: the enrichment ratio came out at 3.65.

Turning to SHKW, the enrichment ratio is at most 0.25.

Turning to VPTN, the enrichment ratio was at most 0.25.

On to DLQT, for which the enrichment ratio is at most 0.25.

Turning to IDNA, the enrichment ratio was at most 0.25.

Regarding HGLW, the enrichment ratio is at most 0.25.

As to SYMH, the enrichment ratio was at most 0.25.

As for LVER, the enrichment ratio is at most 0.25.

As for DYNE, the enrichment ratio was at most 0.25.

For the variant IKDM, the enrichment ratio is at most 0.25.

On to GDMF, for which the enrichment ratio is at most 0.25.

For the variant FCVG, the enrichment ratio is at most 0.25.

As for FPCE, the enrichment ratio was at most 0.25.

Consider RSIW, for which the enrichment ratio was at most 0.25.

QHQC: the enrichment ratio is at most 0.25.

For the variant EQQD, the enrichment ratio was at most 0.25.

As for RMKI, the enrichment ratio is at most 0.25.

With KAKG, the enrichment ratio was at most 0.25.

In the case of NWCK, the enrichment ratio was at most 0.25.

WLPP: the enrichment ratio was at most 0.25.

Consider PLRG, for which the enrichment ratio was at most 0.25.

On to DWSA, for which the enrichment ratio is at most 0.25.

For the variant ICGS, the enrichment ratio is at most 0.25.

For the variant QYNY, the enrichment ratio was at most 0.25.

As for VMRN, the enrichment ratio was at most 0.25.

For AFWA, the enrichment ratio is at most 0.25.

As for AAIT, the enrichment ratio was at most 0.25.

Turning to RQPT, the enrichment ratio is at most 0.25.

For the variant SANE, the enrichment ratio was at most 0.25.

As for WPQH, the enrichment ratio is at most 0.25.

For QAQF, the enrichment ratio was at most 0.25.

On to MLLK, for which the enrichment ratio was at most 0.25.

On to YGAQ, for which the enrichment ratio was at most 0.25.

In the case of YIIA, the enrichment ratio was at most 0.25.

As to RDMI, the enrichment ratio was at most 0.25.

On to FRAY, for which the enrichment ratio was at most 0.25.

Regarding ASDA, the enrichment ratio is at most 0.25.

Turning to DVFW, the enrichment ratio is at most 0.25.

Regarding SLQA, the enrichment ratio is at most 0.25.

For DTKW, the enrichment ratio is at most 0.25.

On to QKYL, for which the enrichment ratio was at most 0.25.

With QEYL, the enrichment ratio was found to be 1.39.

Turning to MKEC, the enrichment ratio was at most 0.25.

As to EYCR, the enrichment ratio is at most 0.25.

With RPWK, the enrichment ratio is at most 0.25.

For the variant HQVM, the enrichment ratio is at most 0.25.

As to AAGS, the enrichment ratio was at most 0.25.

As to WMLI, the enrichment ratio is at most 0.25.

For SVGI, the enrichment ratio amounted to 3.36.

Take GFYL: the enrichment ratio is at most 0.25.

For KLEV, the enrichment ratio was at most 0.25.

Take YPAR: the enrichment ratio is at most 0.25.

For TELW, the enrichment ratio was at most 0.25.

On to ELHD, for which the enrichment ratio was at most 0.25.

As for FVMV, the enrichment ratio was 0.818.

For the variant TLPA, the enrichment ratio was at most 0.25.
